The values below come from PMC4336329 (PLoS ONE, 2015).

The structures appear in SMILES notation. Out of some 310,000 compounds screened, about 14,000 (4.5%) showed an effect of 50% or more. The effect is printed as a negative number. The list shows a part of the results.
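Also: peak tail current of the secondary pulse compared with the same well before compound.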

For the experiment, the target named is human ether-à-go-go-related gene (hERG) potassium channel (human, UniProt Q12809). In words: primary screen, population patch clamp on CHO cells stably expressing hERG.
Sequence of human ether-à-go-go-related gene (hERG) potassium channel (Q12809 whole entry, looked up): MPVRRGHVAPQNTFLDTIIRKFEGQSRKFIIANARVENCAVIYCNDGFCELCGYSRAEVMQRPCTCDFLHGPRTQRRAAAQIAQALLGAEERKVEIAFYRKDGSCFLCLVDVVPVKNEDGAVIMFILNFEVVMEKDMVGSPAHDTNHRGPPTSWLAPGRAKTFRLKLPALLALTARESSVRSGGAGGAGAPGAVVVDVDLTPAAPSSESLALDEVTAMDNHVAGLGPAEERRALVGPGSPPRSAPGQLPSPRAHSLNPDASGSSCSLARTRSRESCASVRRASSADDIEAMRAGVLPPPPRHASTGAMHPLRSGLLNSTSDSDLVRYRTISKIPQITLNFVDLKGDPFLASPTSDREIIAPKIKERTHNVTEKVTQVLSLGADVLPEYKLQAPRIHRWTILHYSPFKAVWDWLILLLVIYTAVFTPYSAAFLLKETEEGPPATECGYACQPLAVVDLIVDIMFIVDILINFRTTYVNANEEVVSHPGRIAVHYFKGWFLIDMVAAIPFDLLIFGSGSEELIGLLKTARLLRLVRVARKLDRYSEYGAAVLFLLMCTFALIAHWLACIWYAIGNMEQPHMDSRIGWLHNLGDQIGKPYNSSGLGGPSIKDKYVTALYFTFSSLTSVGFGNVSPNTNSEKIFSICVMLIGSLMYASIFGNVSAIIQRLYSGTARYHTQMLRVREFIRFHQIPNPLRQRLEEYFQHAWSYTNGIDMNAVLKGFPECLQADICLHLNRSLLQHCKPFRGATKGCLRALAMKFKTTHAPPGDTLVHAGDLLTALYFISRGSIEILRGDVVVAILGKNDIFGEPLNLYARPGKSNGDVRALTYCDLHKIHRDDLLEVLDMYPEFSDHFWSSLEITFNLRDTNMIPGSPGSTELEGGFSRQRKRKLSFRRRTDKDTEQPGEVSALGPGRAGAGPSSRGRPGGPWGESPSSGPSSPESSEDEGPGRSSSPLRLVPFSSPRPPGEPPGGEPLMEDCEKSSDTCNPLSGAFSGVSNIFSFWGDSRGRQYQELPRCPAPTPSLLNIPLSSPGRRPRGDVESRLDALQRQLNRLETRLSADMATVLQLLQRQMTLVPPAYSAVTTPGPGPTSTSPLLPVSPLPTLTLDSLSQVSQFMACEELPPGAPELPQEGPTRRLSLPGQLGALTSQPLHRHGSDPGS
For `CC(O)c1nc(C(C)O)n(CC(=O)c2ccccc2)n1` (stereo not shown), the “hERG current change (%, negative = inhibition) at 10uM” value is 19.2%.

For the compound `O=C(COC(=O)CN1C(=O)c2ccccc2C1=O)NC1CCCC1`, the “hERG current change (%, negative = inhibition) at 10uM” value turned out to be 16%.

For the compound `Cc1[nH]n(-c2ccccc2)c(=O)c1C=Nc1ccc2[nH]c(=O)[nH]c2c1`, the “hERG current change (%, negative = inhibition) at 10uM” value is listed as 10.5%.

Regarding `Cc1csc2c(=O)[nH]cnc12`, the “hERG current change (%, negative = inhibition) at 10uM” value was 8.59%.

For `Cc1ccc(N2CC(C(=O)NCCS(=O)(=O)N3CCN(c4ccccc4)CC3)CC2=O)cc1` (stereo not shown), the “hERG current change (%, negative = inhibition) at 10uM” value came out at 15.5%.

As for `CCOc1ccc(C(=O)NCC(=O)OCC(=O)N2C(C)CCCC2C)cc1` (stereo not shown), the “hERG current change (%, negative = inhibition) at 10uM” value is on record as -1.33%.

`CC12CCC3c4ccc(O)cc4CCC3C1CCC2=O` (stereo not shown): the “hERG current change (%, negative = inhibition) at 10uM” value is -4.66%.

As to `O=C(CSc1cn(CCNC(=O)c2ccccc2)c2ccccc12)NCc1ccco1`, the “hERG current change (%, negative = inhibition) at 10uM” value was -10.2%.

`COC(=O)c1c(S(C)(=O)=O)nc(-c2ccccc2)[nH]c1=O`: the “hERG current change (%, negative = inhibition) at 10uM” value is listed as -2.13%.

As to `Cc1ccccc1C(=O)Nc1ccc(S(=O)(=O)Nc2onc(C)c2C)cc1`, the “hERG current change (%, negative = inhibition) at 10uM” value is on record as -7.96%.

Regarding `COc1cc2c(cc1OC)CN(C(=O)c1ccc(S(=O)(=O)N3CCCCCC3)cc1)CC2`, the “hERG current change (%, negative = inhibition) at 10uM” value is -27.3%.

Regarding `Cc1nn(-c2ccccc2)c2sc(C(=O)OC3CCOC3=O)cc12` (stereo not shown), the “hERG current change (%, negative = inhibition) at 10uM” value is -7.55%.

On to `CCn1c(SCC(=O)O)nnc1-c1ccc2[nH]c(C)c(C)c2c1`, for which the “hERG current change (%, negative = inhibition) at 10uM” value is on record as -2.81%.

For the compound `COc1cc(C)ccc1S(=O)(=O)N1CCN(C23CC4CC(CC(C4)C2)C3)CC1`, the “hERG current change (%, negative = inhibition) at 10uM” value is recorded as -11%.

Take `COc1ccc(N2CCN(C(=O)CSc3nnc4c(C)cc5c(C)cc(C)cc5n34)CC2)cc1`: the “hERG current change (%, negative = inhibition) at 10uM” value is given as -33.8%.

As for `O=C(COC(=O)Cc1ccsc1)Nc1ccc(Br)cc1`, the “hERG current change (%, negative = inhibition) at 10uM” value was determined as 11.5%.

Turning to `Cc1c(C(=O)NCc2cccs2)oc2ccc(Br)cc12`, the “hERG current change (%, negative = inhibition) at 10uM” value amounted to 3.26%.

Consider `O=C(c1cccs1)N1CCCC(c2ccccc2)C1` (stereo not shown), for which the “hERG current change (%, negative = inhibition) at 10uM” value is recorded as -6.92%.

With `Cc1cc(NC(=O)CSc2n[nH]c(-c3ccc(Cl)cc3Cl)n2)no1`, the “hERG current change (%, negative = inhibition) at 10uM” value is reported as -0.823%.

For the compound `COc1ccc(C(NC(=O)C(C)C)c2c(O)ccc3ccccc23)cc1` (stereo not shown), the “hERG current change (%, negative = inhibition) at 10uM” value is reported as 14.7%.

As for `COc1ccc(OCC(=O)N/N=C(\C)CC(=O)Nc2ccc(OC)cc2[N+](=O)[O-])cc1`, the “hERG current change (%, negative = inhibition) at 10uM” value was -93.8%.

`CCN(CC)S(=O)(=O)c1ccc(C(=O)NC2=C(C(=O)OC)SCC2)cc1`: the “hERG current change (%, negative = inhibition) at 10uM” value is -6.75%.

As for `O=C(CNC(=O)c1ccco1)N=Nc1c(O)n(CCc2ccccc2)c2ccccc12`, the “hERG current change (%, negative = inhibition) at 10uM” value is recorded as -38.3%.

On to `O=C(C/C=N/OCc1ccc(F)cc1Cl)c1cnc(-c2ccccc2)s1`, for which the “hERG current change (%, negative = inhibition) at 10uM” value is 9.13%.

Consider `CC(C)CN(C(=O)COC(=O)CCC(=O)c1ccc(F)cc1)c1c(N)n(Cc2ccccc2)c(=O)[nH]c1=O`, for which the “hERG current change (%, negative = inhibition) at 10uM” value is -11.4%.

In the case of `O=C(C[n+]1ccc(C(=O)NCc2ccccc2)cc1)c1ccc(Cl)cc1.[Br-]`, the “hERG current change (%, negative = inhibition) at 10uM” value is -71.3%.

Regarding `Cc1ccc(Nc2c(-c3ccc(N4CCOCC4)cc3)nc3cnccn23)cc1`, the “hERG current change (%, negative = inhibition) at 10uM” value is listed as -3.6%.

Take `C[C@@H](C(=O)Nc1ccc2c(c1)OCCO2)n1nnc2ccccc2c1=O`: the “hERG current change (%, negative = inhibition) at 10uM” value worked out at 16.4%.

Consider `COC(=O)c1ccc(C(=O)OC)c(NC(=O)Oc2ccccc2)c1`, for which the “hERG current change (%, negative = inhibition) at 10uM” value was 17.2%.

`Cc1ccc(C)c(N2CCN(C(=O)CC3Sc4ccccc4NC3=O)CC2)c1` (stereo not shown): the “hERG current change (%, negative = inhibition) at 10uM” value was -0.241%.

For `CCCCCn1c(N)c(-c2nc3ccccc3s2)c2c([N+](=O)[O-])nn(CC)c(=O)c21`, the “hERG current change (%, negative = inhibition) at 10uM” value turned out to be 5.78%.

As for `C=CCn1c(SCC(=O)Nc2ccccc2OC)nc(O)c(CC)c1=O`, the “hERG current change (%, negative = inhibition) at 10uM” value is listed as -7.52%.

Take `O=C(O)C(=O)O.O=C(c1cccc(Cl)c1)N1CCN(CCCc2ccccc2)CC1`: the “hERG current change (%, negative = inhibition) at 10uM” value is reported as -45%.

For the compound `CC(C)(NC(=O)c1cc(Cl)c2ccccc2c1O)C(=O)O`, the “hERG current change (%, negative = inhibition) at 10uM” value stood at 22.2%.

Take `CCn1c(-c2c[nH]c3ccccc23)n[nH]c1=S`: the “hERG current change (%, negative = inhibition) at 10uM” value was 21.9%.

As for `Nc1ccc(Br)cc1C(NCC(=O)O)c1ccccc1` (stereo not shown), the “hERG current change (%, negative = inhibition) at 10uM” value worked out at 22.9%.

With `Cc1nc2sc(C(c3ccccc3)N3CCN(c4ccccc4F)CC3)c(O)n2n1` (stereo not shown), the “hERG current change (%, negative = inhibition) at 10uM” value is given as -29.4%.

As to `CN(CC(=O)NCCC1=CCCCC1)S(=O)(=O)c1ccc2c(c1)CCC(=O)N2`, the “hERG current change (%, negative = inhibition) at 10uM” value was -5.37%.

Take `Cc1cnc(CNC(=O)CC2C(=O)NCCN2Cc2ccccc2F)cn1` (stereo not shown): the “hERG current change (%, negative = inhibition) at 10uM” value came out at 10.5%.

On to `C[C@]12C=CC(=O)C=C1CC[C@@H]1[C@@H]2[C@@H](O)C[C@@]2(C)[C@H]1CC[C@]2(O)C(=O)COC(=O)CCC(=O)[O-].[Na+]`, for which the “hERG current change (%, negative = inhibition) at 10uM” value stood at 30.8%.

For `O=C(O)c1ccc(N2CCCC2=O)cc1`, the “hERG current change (%, negative = inhibition) at 10uM” value was 15.6%.

For `Cc1nnc2ccc(N3CCN(c4cccc(C(F)(F)F)c4)CC3)nn12`, the “hERG current change (%, negative = inhibition) at 10uM” value is -61.8%.

As for `O=C(CSc1nnc(C2COc3ccccc3O2)o1)N1CCCc2ccccc21` (stereo not shown), the “hERG current change (%, negative = inhibition) at 10uM” value turned out to be 5.53%.
